Experimental data: PubChem BioAssay AID2147 (National Center for Advancing Translational Sciences (NCATS), 2009)
Hit rate of the full screen: of about 230,000 compounds, about 3,600 (1.6%) were called active. The shares of active, inactive and inconclusive entries below differ from those in the screen. The call rests on the fitted dose curve; in most records, active means well fitted inhibition curve with a large enough effect (not every such curve was filed as active); inconclusive means small, poorly fitted or top-dose-only effect, or another doubt; inactive means no such curve, though single readings can be large or run the other way. Where the call is inconclusive, the potency comes from a doubtful curve fit.
Further: nearly all actives have a fitted effect of over 50% in size.
Potency means the concentration at half of the fitted maximal effect; tags describe the fitted curve by direction and shape.
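Wherever activity change, negative = inhibition is given: 0% = wells with enzyme and -100% = buffer wells without enzyme.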

The compounds below were run against Lysine-specific demethylase 4E (Homo sapiens) (UniProt B2RXH2) (assay: qHTS Assay for Inhibitors of Human Jumonji Domain Containing 2E (JMJD2E)). Settings: JMJD2E catalytic domain, FDH-coupled NADH fluorescence (FDH is formaldehyde dehydrogenase); series mostly up to 57.1 µM; activity change, negative = inhibition: at the top concentration.
UniProt B2RXH2, sequence (B2RXH2 whole entry, looked up, the tested form may be a part): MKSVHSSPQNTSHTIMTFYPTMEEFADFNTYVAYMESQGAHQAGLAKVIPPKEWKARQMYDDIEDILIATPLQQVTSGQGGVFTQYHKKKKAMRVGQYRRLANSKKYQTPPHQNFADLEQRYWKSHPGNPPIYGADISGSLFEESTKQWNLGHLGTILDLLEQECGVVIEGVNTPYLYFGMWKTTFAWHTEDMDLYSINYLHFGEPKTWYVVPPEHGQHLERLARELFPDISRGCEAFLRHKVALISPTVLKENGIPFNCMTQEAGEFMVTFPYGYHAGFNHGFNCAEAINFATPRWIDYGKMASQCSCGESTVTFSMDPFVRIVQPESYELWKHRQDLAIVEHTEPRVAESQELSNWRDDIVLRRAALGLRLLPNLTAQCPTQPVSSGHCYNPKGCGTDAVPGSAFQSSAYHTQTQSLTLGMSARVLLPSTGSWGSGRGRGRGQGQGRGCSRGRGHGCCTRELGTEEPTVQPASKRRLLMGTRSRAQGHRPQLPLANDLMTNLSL
With `C=C1c2ccc(C)cc2NC(=O)N1c1ccccc1` the Potency was inconclusive: 25.1 µM [inhibitor, single point].
With `O=C(N/N=C/c1cn(-c2ccccc2)nc1-c1cccs1)c1ccccc1F` the Potency was inconclusive: 35.5 µM [inhibitor, single point].
With `Cc1ccc2nc(C)c3c(c2c1)OC(C(C)(Cl)Br)C3` (configuration not stated) the Potency was inconclusive: 39.8 µM [inhibitor, single point].
With `CN1C(=O)/C(=C\c2cc(N=Nc3ccccc3)ccc2O)SC1=S` the “activity change, negative = inhibition” value was inactive: -5.46%.
With `CC(Nc1nc(N2CCCCC2)nc2ccccc12)c1ccccc1` (configuration not stated) the Potency was inconclusive: 31.6 µM [inhibitor, partial curve].
For `COc1cc(NS(=O)(=O)c2ccc(NC(=S)NC(=O)c3cccs3)cc2)nc(OC)n1`, the Potency was inconclusive: 25.1 µM [inhibitor, single point].
`Cc1cc(C)c[n+](-c2nc3ccccc3nc2C(=C=[N-])C#N)c1` was tested, and the Potency was inconclusive: 31.6 µM [inhibitor, single point].
In the case of `Cc1ccc(S(=O)(=O)N(C(=O)c2ccco2)c2cc3sc(=O)oc3c3ccccc23)cc1`, the Potency was active: 14.1 µM.
`C#CCOCCOCCOCCNc1nc(N2CCN(C(=O)[C@H](CCC(=O)O)n3cc(C(N)CO)nn3)CC2)nc(N2CCN(C(=O)[C@H](CCC(=O)O)n3cc(C(N)CC(C)C)nn3)CC2)n1` (some centres not stated) was tested, and the Potency was active: 22.4 µM.
In the case of `CC(=O)Oc1ccc(C(=O)Cc2ccccn2)c(O)c1`, the Potency was inconclusive: 39.8 µM [inhibitor, single point].
For `CCOc1ccccc1NC(=S)N(CCCN1CCOCC1)Cc1cn(C)c2ccccc12`, the “activity change, negative = inhibition” value was inactive: -3.76%.
`c1ccc2c(c1)nc(Nc1ccc3c(c1)OCO3)c1nnnn12` was tested, and the Potency was inconclusive: 39.8 µM [inhibitor, single point].
For `O=C(NCCCN1CCCC1=O)C1CCN(S(=O)(=O)N2CCOCC2)CC1`, the “activity change, negative = inhibition” value was inactive: -0.488%.
`O=C(CCC1CCCN(C(=O)CCCc2ccccc2)C1)N1CCN(c2ccccn2)CC1` (configuration not stated) was tested, and the Potency was inconclusive: 35.5 µM [inhibitor, single point].
In the case of `COc1ccccc1/C=C(/CC(=O)NCc1ccc2c(c1)OCO2)c1nc2ccccc2s1`, the Potency was inconclusive: 35.5 µM [inhibitor, partial curve].
For `c1cc2c3c(cccc3c1)C(N1CCCCC1)=N2`, the Potency was inconclusive: 28.2 µM [inhibitor, single point].
`COc1ccc(CCN(Cc2cc3cc(C)ccc3[nH]c2=O)C(=O)N2CCCC2)cc1OC` was tested, and the Potency was inconclusive: 28.2 µM [inhibitor, partial curve].
With `CCOc1ccc(OCCCCN2CCCC2)cc1` the Potency was inconclusive: 25.1 µM [inhibitor, single point].
`O=C(O)CCS(=O)(=O)c1nc(-c2cccs2)cc(C(F)(F)F)n1` was tested, and the Potency was inconclusive: 35.5 µM [inhibitor, partial curve].
With `Cc1ccccc1NC(=O)c1c(C)nc(SCC(=O)OCc2ccccc2)c(C#N)c1-c1ccc(F)cc1` the Potency was inconclusive: 28.2 µM [inhibitor, partial curve].
With `CCn1cc(-c2cc(C(=O)O)c3ccccc3n2)c(C)n1` the Potency was inconclusive: 31.6 µM [inhibitor, partial curve].
For `CC1CCN(c2nc3c(cc2C#N)COC(C)(C)C3)CC1`, the Potency was inconclusive: 25.1 µM [inhibitor, partial curve].
`COc1cc2c(cc1OC)CN(c1nc(CN3CCOCC3)nc3sc4c(c13)CCCC4)CC2` was tested, and the “activity change, negative = inhibition” value was inactive: -17.2%.
`COC(=O)/C=C1/S/C(=N/NC(=O)c2ccccc2C)NC1=O` was tested, and the Potency was inconclusive: 35.5 µM [inhibitor, single point].
`CC/C(=N\NC(=S)Nc1cc(C)ccc1C)c1ccc(OC(F)F)cc1` was tested, and the Potency was inconclusive: 39.8 µM [inhibitor, single point].
`Cc1nnc(NC(=O)Nc2cccc(Cl)c2)s1` was tested, and the “activity change, negative = inhibition” value was inactive: 4.54%.
With `COC(=O)C1=C(Nc2ccc(C)cc2)C=C(C)C(C(=O)OC)C1c1cccc(OC)c1` (configuration not stated) the Potency was inconclusive: 35.5 µM [inhibitor, single point].
With `Clc1cccc(OCCN2CCOCC2)c1` the Potency was inconclusive: 39.8 µM [inhibitor, single point].
For `O=C(O)c1ccc2c3c(ncnc13)-c1ccccc1C2=O`, the Potency was inconclusive: 39.8 µM [inhibitor, single point].
In the case of `C[N+](C)(C)C(Cc1c[nH]c2ccccc12)C(=O)[O-]` (configuration not stated), the “activity change, negative = inhibition” value was inactive: -26%.
`O=C(NC1CCCCC1)N1CCC(c2nc(-c3ccc(S(=O)(=O)N4CCCC4)cc3)no2)CC1` was tested, and the Potency was inconclusive: 35.5 µM [inhibitor, single point].
In the case of `CCC(=O)Nc1nonc1-c1nc2ccccc2n1CCC(C)C`, the Potency was inconclusive: 25.1 µM [inhibitor, partial curve].
With `Cc1ccccc1C(=O)NNC(=O)/C=C/c1ccccc1` the Potency was inconclusive: 3.16 µM [inhibitor, single point].
With `O=C(NNC(=S)Nc1ccc(Cl)cc1)c1ccccc1OC(F)F` the Potency was inconclusive: 39.8 µM [inhibitor, single point].
For `CCOC(=O)c1cc2c(C)nn(-c3ccccc3)c2s1`, the Potency was inconclusive: 22.4 µM [inhibitor, partial curve].
`CCC(C)(C)n1nnnc1CN(Cc1cc2cc(OC)c(OC)cc2[nH]c1=O)C1CCCC1` was tested, and the Potency was inconclusive: 35.5 µM [inhibitor, partial curve].
`O=C(c1ccccc1)c1nn(-c2ccc(Cl)cc2)c(=O)cc1C(F)(F)F` was tested, and the Potency was inconclusive: 31.6 µM [inhibitor, single point].
With `CCOC(=O)c1cnc(-n2nc(C)cc2C)nc1NC1CCCC1` the Potency was inconclusive: 35.5 µM [inhibitor, single point].
In the case of `CCN1CCc2c(C#N)c(N3CCCCC3)nc(N3CCOCC3)c2C1`, the Potency was inconclusive: 28.2 µM [inhibitor, partial curve].
With `CCN(CC)c1nc(N)c2c(N)nc3c(c2c1C#N)CC(c1ccccc1)O3` (configuration not stated) the Potency was inconclusive: 25.1 µM [inhibitor, partial curve].
`c1ccc2c(c1)Sc1ccccc1-n1cnnc1-2` was tested, and the “activity change, negative = inhibition” value was inactive: -7.31%.
`CCCOC(=O)c1ccc(-c2c(C)noc2-c2ccc(OC)cc2O)o1` was tested, and the Potency was inconclusive: 25.1 µM [inhibitor, single point].
For `COc1ccc(NC(=O)c2cc(-c3cccc(OC)c3)on2)cc1`, the Potency was inconclusive: 35.5 µM [inhibitor, partial curve].
In the case of `CCn1c(SCC(=O)c2ccc(F)cc2)nnc1-c1ccoc1C`, the “activity change, negative = inhibition” value was inactive: 1%.
`O=C1CCCc2c1nc(-c1ccc(F)cc1)n2O` was tested, and the Potency was inconclusive: 25.1 µM [inhibitor, partial curve].
With `O=C(Cc1ccccc1)NC(c1ccco1)c1c(O)ccc2ccccc12` (configuration not stated) the Potency was inconclusive: 31.6 µM [inhibitor, partial curve].
In the case of `Cc1cc(C)n(-c2nc(NCC(C)O)c3c4c(sc3n2)CCCC4)n1` (configuration not stated), the Potency was inconclusive: 22.4 µM [inhibitor, partial curve].
For `COc1ccccc1N1CCN(C(=O)c2cc3c(=O)n(C)c4ccccc4c3n2C)CC1`, the Potency was inconclusive: 39.8 µM [inhibitor, single point].
In the case of `NS(=O)(=O)c1ccc(-c2ccc(C=O)o2)cc1`, the Potency was inconclusive: 39.8 µM [inhibitor, single point].
For `CN1CCN(c2nc3ccccn3c(=O)c2/C=C(\C#N)S(=O)(=O)c2ccc(Cl)cc2)CC1`, the Potency was inconclusive: 39.8 µM [inhibitor, single point].
For `COc1cccc(N2CC(O)=C(c3nc4ccccc4s3)C2=N)c1`, the Potency was inconclusive: 35.5 µM [inhibitor, single point].
`C=CCc1cc(Cl)ccc1OCCCNC(C)CC` (configuration not stated) was tested, and the Potency was inconclusive: 39.8 µM [inhibitor, single point].
With `COc1cc(/C=C2/C(=N)N3C=CSC3=NC2=O)ccc1OCCOc1ccc(NC(C)=O)cc1` the Potency was inconclusive: 11.2 µM [inhibitor, partial curve].
In the case of `CCOC(=O)/C(C#N)=C/C1=C(N2CCOCC2)CC(C)(C)OC1`, the Potency was inconclusive: 28.2 µM [inhibitor, partial curve].
`COC(=O)C1=C(C)Nc2nc(SCc3ccccc3)[nH]c(=O)c2C1c1cccs1` (configuration not stated) was tested, and the Potency was inconclusive: 35.5 µM [inhibitor, single point].
In the case of `CCc1ccccc1NC1=NCC(=O)N1C1CCCC1`, the “activity change, negative = inhibition” value was inactive: 5.06%.
With `O=C(Oc1ccc2c(c1)OCC2=O)c1ccccc1` the “activity change, negative = inhibition” value was inactive: -7.43%.
`CSc1nc(SCC(=O)O)c2sc3nc(-c4ccccc4)c4c(c3c2n1)CCC4` was tested, and the Potency was inconclusive: 35.5 µM [inhibitor, single point].
With `O=c1cc(CSc2ccccc2)nc(-c2ccncc2)[nH]1` the “activity change, negative = inhibition” value was inactive: 3.08%.
`CC1=NN(C(N)=S)C(=O)C1N=Nc1c(C)cc(C)cc1C` (configuration not stated) was tested, and the “activity change, negative = inhibition” value was inactive: 4.84%.
With `COc1cc(/C=C2/C(C)=C(C#N)c3nc(N)c(C#N)c(C)c32)ccc1OCC(=O)O` the Potency was inconclusive: 28.2 µM [inhibitor, partial curve].
`C=C(C)COc1ccc(-c2nc(N)ncc2-c2ccc(OC)cc2)c(O)c1` was tested, and the Potency was inconclusive: 8.91 µM [inhibitor, partial curve, poor fit].
`Nc1c(C(=O)NCCN2CCOCC2)c2nc3ccccc3nc2n1-c1ccccc1` was tested, and the Potency was inconclusive: 28.2 µM [inhibitor, partial curve].
`NNC(=O)c1cc(O)c(O)c(O)c1` was tested, and the Potency was inconclusive: 3.16 µM [inhibitor, partial curve].
In the case of `O=[N+]([O-])c1cccc(/C=N/Nc2nnc(-c3ccccc3)c(-c3ccccc3)n2)c1`, the “activity change, negative = inhibition” value was inactive: 3.13%.
In the case of `CN1C=CC=C/C1=C1\SC(=S)N(CC(=O)O)C1=O`, the Potency was inconclusive: 25.1 µM [inhibitor, single point].
`Cc1cc(C(=O)O)cc(S(=O)(=O)N2CCOCC2)c1C` was tested, and the “activity change, negative = inhibition” value was inactive: -1%.
